Measurements taken from the supplement of paper PMC3334620.
In all, about 33,000 sequences were measured (“E-score (-0.5 to 0.5)”: median about -0.012, highest 2% from about 0.29 on). The list shows a part of the results.

target: T1, Ybr033w (UniProt P38073); experiment: PBM E-score (8-mer binding enrichment) (E-score (-0.5 to 0.5)); higher = stronger / more preferred TF binding; most listed sequences are background and not binding sites; conditions: protein concentration: 200 nM; construct: GST-full length
T1 sequence: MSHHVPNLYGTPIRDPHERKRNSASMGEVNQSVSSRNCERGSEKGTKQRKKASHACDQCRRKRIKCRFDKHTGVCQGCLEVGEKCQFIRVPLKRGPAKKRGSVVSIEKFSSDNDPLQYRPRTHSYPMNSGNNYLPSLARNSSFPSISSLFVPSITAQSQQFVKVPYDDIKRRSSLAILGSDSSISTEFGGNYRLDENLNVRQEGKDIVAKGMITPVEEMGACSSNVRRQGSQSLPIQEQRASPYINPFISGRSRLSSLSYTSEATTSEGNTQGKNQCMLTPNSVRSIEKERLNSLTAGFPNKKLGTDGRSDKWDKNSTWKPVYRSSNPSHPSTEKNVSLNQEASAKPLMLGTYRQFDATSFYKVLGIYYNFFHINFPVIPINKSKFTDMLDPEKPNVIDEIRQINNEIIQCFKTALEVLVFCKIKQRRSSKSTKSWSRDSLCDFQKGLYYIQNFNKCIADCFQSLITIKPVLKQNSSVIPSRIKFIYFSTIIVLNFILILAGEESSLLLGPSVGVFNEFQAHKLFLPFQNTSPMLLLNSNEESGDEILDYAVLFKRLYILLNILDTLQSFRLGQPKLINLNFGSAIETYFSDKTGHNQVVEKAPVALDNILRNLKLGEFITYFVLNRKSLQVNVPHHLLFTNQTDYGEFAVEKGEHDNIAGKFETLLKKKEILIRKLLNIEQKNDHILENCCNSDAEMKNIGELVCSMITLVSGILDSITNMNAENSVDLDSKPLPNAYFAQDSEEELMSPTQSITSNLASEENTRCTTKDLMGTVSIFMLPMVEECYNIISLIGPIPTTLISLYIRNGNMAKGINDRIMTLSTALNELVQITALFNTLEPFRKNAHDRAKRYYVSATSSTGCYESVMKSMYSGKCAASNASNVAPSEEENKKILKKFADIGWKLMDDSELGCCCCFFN
Outline: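 Using PURExpress in vitro transcription/translation, GST-tagged yeast transcription factors were made in full-length or DNA-binding-domain form. These were applied at about 100-200 nM to double-stranded universal all-10-mer Agilent arrays, and bound protein was detected with fluorescent anti-GST. Scans were normalised with masliner before the Universal PBM Analysis Suite assigned E-scores to ungapped eight-base words pooled with their reverse complements.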

Sequence	PBM E-score
ATCCGGAG	0.143
CATGTCTA	-0.00971
AGAAGTCG	-0.0629
GTGGGCTA	-0.105
CCCACCGG	-0.282
GTGGATGA	-0.0688
ACATGCAT	0.0238
AGAAATAA	0.36
GCCATAGA	-0.182
AATGGTGA	-0.0346
CGGGCTGA	-0.226
AGACTTAA	-0.0476
CGGCGAAA	0.11
AATCTTAA	0.101
ACAGGAGT	0.0153
AGCACGGC	-0.201
ACTTAGAA	0.0484
ATCCAATC	0.125
GAGTCCCC	-0.31
TACGCTGA	0.138
TTATGGAA	0.165
GTCAGAGA	-0.0968
ATGCAAAC	-0.0696
ATTGACGA	0.142

Sequence	PBM E-score
ACTTTTAC	0.327
CAGCCTGA	-0.141
CCCATAAA	-0.181
CATTGCAA	0.0231
TAAAGCAA	0.225
CTCGCCCA	0.0378
AGGACGAA	-0.00148
AATGCCGT	0.129
CGCAGTAG	-0.0369
AATCACTA	0.072
ATTGGGGA	-0.15
CATGAGCC	-0.116
TGCAGCCA	-0.194
CTAGTGAC	-0.0419
AGCCTTCA	0.0356
AATTGCCA	0.134
ATTGTCCG	0.27
CCATAGCG	-0.064
TATCACCA	0.0892
AGCCAGCT	-0.18
CGCATCGA	0.137
AACACCTC	-0.118
CTCGATGA	0.12
GGTACAAA	0.119

Sequence	PBM E-score
GAAGATGC	-0.106
ACGCGGTG	-0.125
AATACAAA	0.302
AAGGGCTG	-0.0723
CCGATATC	0.0977
CGCCAAAC	-0.076
GGAGGGAA	-0.0794
GAACCTAA	0.0406
CAGACAGG	-0.122
AGATTGGA	0.14
CCTATACC	-0.107
GGCGATCA	-0.195
TATTCCGA	0.398
AACTTGCT	-0.0161
CGCATAAC	0.115
ATTACGTC	-0.0191
TACTGCAA	0.158
ACCTGGAG	0.00754
CAGGCCTC	-0.38
GCTCGACA	-0.178
CGAAACAC	0.124
GACTTCCC	-0.18
AACAAGGC	-0.142
CACGATTC	-0.00267

Sequence	PBM E-score
GGCATAAC	0.0194
AACATGGG	0.103
CTGTCGGA	0.0869
AAATGCAT	0.142
ATGACAGG	-0.131
ACACGTGG	-0.0608
AGATGCTA	0.0151
ACAAGTCA	-0.111
TCCAGCCA	-0.201
ACCCTTGG	-0.268
AGCAAGGC	0.0256
CCAATCGC	-0.119
TACAGTGA	0.0734
TGCAGGCA	-0.0889
CTAGAGGC	-0.168
CCGTCTCG	-0.0451
GTGCCGGA	-0.158
AACCACTA	0.108
GCTTAACC	-0.0693
GAGTAAGA	0.191
GGACGGGA	-0.221
CGCTTTTA	0.165
